The supplement of paper PMC3334620
In all, about 33,000 sequences were measured (“E-score (-0.5 to 0.5)”: median about -0.013, highest 2% from about 0.3 on). Some of the results follow.

Biological target: T1, Msn1 (UniProt P22148)
T1 sequence: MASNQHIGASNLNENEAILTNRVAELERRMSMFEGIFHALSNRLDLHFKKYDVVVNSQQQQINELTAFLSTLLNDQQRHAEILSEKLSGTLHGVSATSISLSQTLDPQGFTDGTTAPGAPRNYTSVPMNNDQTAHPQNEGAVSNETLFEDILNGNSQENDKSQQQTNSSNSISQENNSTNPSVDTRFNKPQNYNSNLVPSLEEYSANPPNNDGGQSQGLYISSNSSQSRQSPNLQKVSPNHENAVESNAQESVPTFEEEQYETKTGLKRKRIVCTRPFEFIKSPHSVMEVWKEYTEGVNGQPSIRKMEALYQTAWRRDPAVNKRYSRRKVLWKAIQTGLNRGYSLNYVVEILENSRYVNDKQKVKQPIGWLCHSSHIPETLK
Assay: PBM E-score (8-mer binding enrichment) (E-score (-0.5 to 0.5)); higher = stronger / more preferred TF binding; most listed sequences are background and not binding sites
Settings: protein concentration: 200 nM; construct: GST-full length
In short: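 GST-tagged yeast TFs (full-length or DNA-binding domain) were made by PURExpress in vitro transcription/translation and applied at about 100-200 nM to universal all-10-mer Agilent arrays. The arrays were made double-stranded by primer extension, on fresh or once-stripped slides. Bound protein was detected with fluorescent anti-GST, and scans were normalised with masliner. Each ungapped eight-base word, pooled with its reverse complement, received an E-score (modified Wilcoxon-Mann-Whitney statistic) from the Universal PBM Analysis Suite.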

Sequence	PBM E-score
CCATGAAC	0.0774
ATGTTAGC	-0.103
AGTTGCAC	-0.0526
TAGTTAGA	-0.0425
ACTCAATC	0.017
CAGGTGCG	-0.121
AGTCGTGC	-0.132
AGGTCCCC	-0.299
GCGACCAC	-0.08
AGAACCGA	0.119
CACATCTA	0.0157
GTACCCAA	0.0345
CAGAACCC	-0.195
CTGCCCTC	-0.329
GACTAGTC	0.167
AGTATACC	-0.0263
AGACCGGC	-0.171
ATACATTA	0.237
AGGCGACA	-0.106
GATATGGA	0.205
AGGTTCGG	-0.171
ATCCGTGG	-0.0752
AATCCGAA	-0.0636
GCATTTCA	0.0826
CAGGGAAA	-0.0891

Sequence	PBM E-score
AAGCTGGC	-0.0659
CTCGCTGA	0.0181
GAACCGTA	-0.00356
CCGCAGCG	-0.133
GCGTAAAC	-0.017
ATAAAACG	0.12
ACTTTGGC	-0.0739
ACTATCGA	-0.0639
AGGGGTGA	-0.251
CAAACGGG	0.0991
CCTCACAC	-0.187
ACTACTGC	-0.105
GTTCCTAA	-0.0399
GCATGAGA	0.0319
CCAACTCA	0.0263
ACATTGAC	0.112
CGAGCTCC	-0.0327
GGCACAAC	0.0188
CAAAGGTA	-0.0158
TGTTCCAA	0.0356
AGACGAAC	0.0373
ACCAGGTC	0.0327
CTCTACAC	-0.231
ATCACACC	-0.0954
CATGTGGA	0.199

Sequence	PBM E-score
GGGCTCAC	-0.317
CTTGATCA	0.138
CAGACCGA	-0.065
ACGAATCT	0.0133
GCCACAAA	0.133
CGATTCAA	0.0184
AGGATATC	-0.119
AGTGTCCG	0.179
ATAGTCAC	-0.00405
GCTCTGAA	-0.119
ATCCGGGA	-0.0993
ACGGTAAC	-0.0431
AAGGTCCC	-0.0864
ACCAAGGC	-0.117
CGCAAACG	0.11
CAAACCGG	-0.0828
CGGCGCTA	-0.124
GCAGATGA	-0.132
CCTATGTA	-0.0586
GTATAGAC	0.156
AGCAGGTA	-0.0987
CGATGAGA	0.095
AGGGTAAC	-0.177
CCTGCAAC	-0.013
ATACAGGC	-0.118

Sequence	PBM E-score
ATTAAATA	0.181
AGATGTAC	0.0525
ATTATCAG	-0.106
ATTCTGGG	0.0359
CCCGCGGA	0.0169
AAACCAAG	0.15
GACAGCTA	0.00802
ATGAGTCG	-0.04
GCTGAAAC	0.0628
CATACTCC	0.0999
AGTTGCTG	-0.00412
CGCATAAG	0.0399
AAGATACG	0.0299
AATGCTGG	-0.16
AGACTCGC	-0.0765
ACGGGGCA	-0.134
AATTACTA	0.0853
CATATTAC	0.141
CTCCTCCC	-0.172
AATTGCTA	0.00987
ACCCCCGT	-0.336
CCTTACGC	0.145
CCCATCGA	-0.171
AAGTAGGA	0.0343
CGATACCG	-0.0866

Sequence	PBM E-score
ACAGGTTC	-0.138
ACTTGCTA	-0.107
GTAAGTGA	0.0352
CGATATGA	-0.00978
CATTAAGA	0.164
TATGCAGA	0.0372
GGGCTCTA	-0.0347
ACATAAAG	0.224
AGCAGCCC	-0.154
AAAACAGG	0.0274
CAGTCAAC	-0.107
ATGCACAG	-0.18
AGACAACC	0.208
AATGTCAA	0.3
CAGTTTTC	0.0984
AGCCTGAG	-0.236
AGGACGTA	0.295
GGTCGGAA	-0.00455
GATCCGGA	0.0679
ATACGGCG	0.00302
AATTTCGC	-0.0241
ATAGCATC	-0.0253
ATATTTAG	0.209
CGGGTATC	-0.129
GCGGTCGA	0.139

Sequence	PBM E-score
TGGGGCAA	-0.162
AGGAATAC	-0.0954
CATAAAGC	-0.057
GGGTTATA	-0.0618
ATACACAG	0.144
CATTCCAA	0.0263
CGCCAGAA	-0.163
CTAGAAGA	-0.00652
AAGCTCCA	-0.219
ACCGGCCC	-0.222
TTAGGAAA	0.0862
CCAGGCGA	-0.168
ATCAGCTG	0.0576
GATCGTTA	-0.231
CACCAGAA	-0.138
TCCTAAAA	0.12
GATGACGA	0.0729
AGGACACA	0.472
CTTCCGAA	0.0125
CGGCCACC	-0.0809
GCATCGAC	0.00871
TAACCCCA	-0.259
CCAATGAC	-0.00959
GCCATGAA	-0.00602
CATACGCG	0.106

Sequence	PBM E-score
CCCTTGCA	-0.291
GGAGACGA	0.0995
GTCAGACA	0.323
ATGCGGCC	0.0132
ACACGGCT	0.0384
ATACCAAC	0.156
AATTGCTG	0.136
AGTACTGC	-0.113
ATGTGCTG	0.108
GTCTGTGA	0.0908
CAAGAAAG	0.0067
CCACCCCC	-0.325
CTTGTATA	0.0945
CCAATCAC	-0.145
TCTAACAA	0.0472
TCCCGGCA	0.0389
AGGAACCA	0.0456
ACTGAATC	-0.0868
GAGTCGTA	-0.133
GGCCCGTA	-0.179
AATTCTAT	0.0583
CCTTTGCG	-0.0612
